Values joined by “and” are separate entries in the source; they are usually repeats but may differ in a detail not shown here. Equal entries are not always repeated. In all, about 220,000 compounds went through this assay and about 16,000 (7.3%) were called active. Inconclusive means that the source gave no clear call. Such entries were picked first, then a sample of the others. The call rests on the fitted dose curve; in most records, active means well fitted inhibition curve with a large enough effect (not every such curve was filed as active); inconclusive means small, poorly fitted or top-dose-only effect, or another doubt; inactive means no such curve, though single readings can be large or run the other way. Potencies of inconclusive entries are left out as doubtful fits.
biological target: Aldehyde dehydrogenase 1A1 (Homo sapiens) (UniProt P00352); test: qHTS Assay for Inhibitors of Aldehyde Dehydrogenase 1 (ALDH1A1); conditions: Purified ALDH1A1, NADH fluorescence, propionaldehyde substrate; series mostly up to 75.3 µM; activity, negative = inhibition: at the top concentration;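 on activity, negative = inhibition: plate controls were no enzyme wells and a reference inhibitor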
UniProt P00352, sequence (P00352 whole entry, looked up): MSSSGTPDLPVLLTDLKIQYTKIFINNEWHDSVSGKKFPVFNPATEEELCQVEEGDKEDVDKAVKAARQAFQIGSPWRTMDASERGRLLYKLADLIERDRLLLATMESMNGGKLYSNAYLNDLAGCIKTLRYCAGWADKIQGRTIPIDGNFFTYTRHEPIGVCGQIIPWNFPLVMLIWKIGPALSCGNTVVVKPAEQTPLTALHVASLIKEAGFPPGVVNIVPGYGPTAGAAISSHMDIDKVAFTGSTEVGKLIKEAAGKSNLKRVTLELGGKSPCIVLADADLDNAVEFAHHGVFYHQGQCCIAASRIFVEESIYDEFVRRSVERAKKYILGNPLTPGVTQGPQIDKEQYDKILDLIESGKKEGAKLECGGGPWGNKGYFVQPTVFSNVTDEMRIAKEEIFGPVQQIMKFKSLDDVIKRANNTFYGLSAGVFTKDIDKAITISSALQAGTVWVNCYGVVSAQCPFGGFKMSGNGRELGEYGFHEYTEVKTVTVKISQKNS
Potency means the concentration at half of the fitted maximal effect; tags describe the fitted curve by direction and shape.

Which Potency does the source give for `C=CC#N` here?
Its Potency is inconclusive [inhibitor, partial curve].

Which Potency does the source give for `O=C(COC(=O)c1ccc(O)cc1)Nc1ccc(Cl)cc1C(=O)c1ccccc1` here?
The Potency was inconclusive [inhibitor, single point].

Which “activity, negative = inhibition” value does the source give for `C[C@H](CCC(=O)O)C[C@H](C)C[C@H](C)C(=O)/C=C(\O)[C@H](C)C[C@H](C)C/C=C/[C@@H](C)[C@@H](O)[C@@H](C)[C@@H](O)C[C@@H]1CC[C@@](C)([C@H]2CC[C@@](C)([C@@H](C)O)O2)O1` here?
Its value is inactive: 2.67%.

For `O=C(COc1ccccc1F)N1CCN(CCN2C(=O)c3cccc4cccc(c34)C2=O)CC1`, which Potency is on record?
Its Potency is inconclusive [inhibitor, partial curve].

With `O=C(COC(=O)c1cccc(O)c1)Nc1ccc(Cl)cc1C(=O)c1ccccc1` as the compound, how does the “activity, negative = inhibition” value read?
Its value is inactive: -9.09%.

How did the Potency turn out when `CC1CN(c2ccc([N+](=O)[O-])cc2Cl)CCN1` (stereo unspecified) was run?
The Potency was active: 15.8 µM.

With `CN1C[C@@H](CO)C=C2c3cccc4[nH]cc(c34)CC21` (stereo partly specified) as the compound, how does the Potency read?
Its Potency is inconclusive [inhibitor, partial curve].

With `Cc1cc(/C=C2\C(=O)NC(=O)N(Cc3ccccc3Cl)C2=O)c(C)n1-c1ccc(C(=O)O)cc1` as the compound, how does the Potency read?
Its Potency is inconclusive [inhibitor, full curve].

For `ClC(Cl)C(Cl)Cl`, which “activity, negative = inhibition” value is on record?
The value was inactive: 12.1%.

Which Potency does the source give for `CCC(=Nc1ccc(OC)cc1OC)c1c(O)n(C2CCCCC2)c(=O)[nH]c1=O` here?
The Potency was inconclusive [inhibitor, single point].

Which Potency does the source give for `O=c1c2ccccc2nc(-c2ccco2)n1-c1nccs1` here?
Its Potency is inconclusive [inhibitor, single point].

For `Clc1cccc(CN2CCCCC2c2cccnc2)c1` (stereo unspecified), which Potency is on record?
Its Potency is inconclusive [inhibitor, single point].

Which Potency does the source give for `N#Cc1ccccc1Cn1cc(C(=O)c2ccco2)c2ccccc21` here?
The Potency was inconclusive [inhibitor, single point].

With `CN(C)N=O` as the compound, how does the Potency read?
The Potency was inconclusive [inhibitor, single point].

With `O=C(CN1CCOCC1)c1cccc2ccccc12` as the compound, how does the Potency read?
Its Potency is active: 12.6 µM.

For `CC1(C)NCCN2C(=O)CSC21` (stereo unspecified), which Potency is on record?
Its Potency is inconclusive [inhibitor, partial curve].

Which Potency does the source give for `Cn1c(=O)c2c(nc(N/N=C/c3c(O)n(-c4ccccc4)c(=S)[nH]c3=O)n2C)n(C)c1=O` here?
The Potency was active: 8.91 µM.

`COC(=O)C1=Nc2ccccc2/C1=C\c1c(O)n(-c2cc(OC)ccc2OC)c(=O)[nH]c1=O` was tested. Which Potency did it give?
The Potency was inconclusive [inhibitor, single point].

How did the Potency turn out when `CC(C)CN(CC(C)C)c1ccc(C=C2C(=O)NC(=S)NC2=O)cc1[N+](=O)[O-]` was run?
Its Potency is active: 11.2 µM.

How did the Potency turn out when `O=C(CSc1nnnn1-c1ccccc1)Nc1ccc(N2CCOCC2)c(Cl)c1` was run?
The Potency was active: 2.24 µM.

Which Potency does the source give for `NC(N)=Nc1ccc2[nH]c3c(c2c1)C[C@]1(O)[C@@H]2Cc4ccc(O)c5c4[C@]1(CCN2CC1CC1)[C@@H]3O5` here?
Its Potency is active: 25.1 µM.

Which Potency does the source give for `CN1C(=O)C(=Cc2ccc(-c3cccc(Cl)c3)o2)C(=O)N(C)C1=O` here?
Its Potency is inconclusive [inhibitor, full curve].

With `CN[C@H](Cc1ccccc1)c1cccc(OC)c1O` as the compound, how does the activity, negative = inhibition read?
The activity, negative = inhibition was inactive: 5.21% [at 13.5 µM].

With `CC(C)CC1C(C#N)=C(N)Oc2c1c(=O)oc1ccccc21` (stereo unspecified) as the compound, how does the Potency read?
Its Potency is inconclusive [inhibitor, single point].

`COc1ccc(C(=O)CN2CCCCC2)cc1` was tested. Which Potency did it give?
The Potency was inconclusive [inhibitor, partial curve].

`CNc1ccccc1C(=O)O` was tested. Which Potency did it give?
Its Potency is inconclusive [inhibitor, partial curve].

With `O=[N+]([O-])C(Br)Br` as the compound, how does the Potency read?
Its Potency is active: 1.41 µM.

Which Potency does the source give for `Cc1cc(/C=C2/C(=O)NC(=O)N(Cc3ccco3)C2=O)c(C)n1-c1ccc(C(=O)O)cc1` here?
Its Potency is inconclusive [inhibitor, partial curve].

For `Cc1cc(/C=C2\C(=O)NC(=O)N(Cc3ccccc3)C2=O)c(C)n1-c1ccc(Cl)c(C(=O)O)c1`, which Potency is on record?
Its Potency is inconclusive [inhibitor, single point].

How did the Potency turn out when `O=c1[nH]c(=O)n(Cc2ccccc2Cl)c(O)c1/C=C1/C=CC=N1` was run?
The Potency was inconclusive [inhibitor, full curve].

Which Potency does the source give for `CCOc1ccccc1-n1c(O)c(C=Nc2ccc(N(CC)CC)cc2)c(=O)[nH]c1=O` here?
Its Potency is inconclusive [inhibitor, partial curve].

Which “activity, negative = inhibition” value does the source give for `N#CCc1ccccc1` here?
Its value is inactive: 2.01%.

With `Cc1cc(OCC(=O)OC(C)C)c2c3c(c(=O)oc2c1)CCCC3` as the compound, how does the Potency read?
The Potency was inconclusive [inhibitor, partial curve].

Which “activity, negative = inhibition” value does the source give for `CCCCCSc1cc(OC)c(CCN(C)C)cc1OC` here?
Its value is inactive: -5.95%.

How did the “activity, negative = inhibition” value turn out when `C/C(=N\N1CCN(C)CC1)c1c(O)[nH]c(=O)[nH]c1=O` was run?
Its value is inactive: -3.74%.

`CCC(Sc1ccccc1)C(=O)OC1CC2CCC(C1)N2C` (stereo unspecified) was tested. Which Potency did it give?
Its Potency is inconclusive [inhibitor, single point].

Which Potency does the source give for `CO[C@@H]([CH2][Hg])CN1C(=O)c2ccccc2S1(=O)=O.Cn1c(=O)c2nc[nH]c2n(C)c1=O` here?
The Potency was active: 3.16 µM.

For `CCOC(=O)c1cc(CC)sc1/N=C/c1c(O)[nH]c(=S)[nH]c1=O`, which Potency is on record?
The Potency was inconclusive [inhibitor, single point].

How did the Potency turn out when `O=C(c1ccc2c(=O)n(Cc3ccc4c(c3)OCO4)c(=S)[nH]c2c1)N1CCC2(CC1)OCCO2` was run?
The Potency was inconclusive [inhibitor, partial curve, poor fit].

Which “activity, negative = inhibition” value does the source give for `CC(Oc1ccc(-c2ccccc2)cc1)C(=O)O` (stereo unspecified) here?
Its value is inactive: 6.8%.

With `Cc1ccc2c(c1)CC1(CN2C)C(=O)NC(=O)N(c2cc(C)ccc2C)C1=O` (stereo unspecified) as the compound, how does the Potency read?
The Potency was active: 1.78 µM.

For `Clc1cccc(N2CCNCC2)n1`, which Potency is on record?
The Potency was inconclusive [inhibitor, single point].

For `CCOP(=O)(OCC)c1nc(-c2cccc3ccccc23)oc1NCc1ccccc1`, which Potency is on record?
Its Potency is inconclusive [inhibitor, partial curve].

For `CC(C)CNCCc1ccccn1`, which activity, negative = inhibition is on record?
Its activity, negative = inhibition is inactive: 15.8% [at 13.5 µM].

For `CC1=CC(=O)OC2CC3OC4C[C@@H](C)C5OC6CC7O[C@]8(C)C/C=C\C9OC%10CC%11OC(CC(C)CO)CC(O)[C@]%11(C)OC%10CC9OC8C[C@]7(C)O[C@]6(C)CCC5OC4C[C@]3(C)OC12` (stereo partly specified), which Potency is on record?
Its Potency is active: 2.82 µM.

`Cc1ccc(-c2nc3ccccc3c(=O)n2-c2ccccn2)cc1` was tested. Which Potency did it give?
The Potency was inconclusive [inhibitor, single point].

For `O=c1ccc(=O)[nH][nH]1`, which Potency is on record?
Its Potency is inconclusive [inhibitor, single point].

For `O=[N+]([O-])/C(Cl)=C1\NCCN1Cc1ccc(Cl)nc1`, which Potency is on record?
The Potency was inconclusive [inhibitor, single point].

Which Potency does the source give for `O=c1[nH]c(=O)n(Cc2ccccc2Cl)c(O)c1C=Nc1ccc(F)cc1` here?
Its Potency is inconclusive [inhibitor, single point].

How did the Potency turn out when `COc1cc(CNC(=O)CCCC/C=C/C(C)C)ccc1O` was run?
Its Potency is active: 15.8 µM and active: 2 µM.

Which Potency does the source give for `Cn1cccc1-c1cccnc1` here?
Its Potency is inconclusive [inhibitor, single point].

How did the Potency turn out when `COc1ccc(S(=O)(=O)Nc2cc([N+](=O)[O-])ccc2OC)cc1` was run?
The Potency was inconclusive [inhibitor, single point].

`CC(=O)OC1CC2C(C)(C)C(O)C=C[C@@]2(C)C2CC[C@]3(C)C(=CC(=O)OC3c3ccoc3)[C@]12C` (stereo partly specified) was tested. Which Potency did it give?
Its Potency is inconclusive [inhibitor, partial curve].

`N#CC(c1ccc(O)cc1)N1CCCCC1` (stereo unspecified) was tested. Which Potency did it give?
Its Potency is active: 4.47 µM.

With `CCCCNC(=O)Oc1cc(CCl)on1` as the compound, how does the Potency read?
The Potency was active: 12.6 µM.

For `COc1cc2c(cc1O)C[C@H]1NCCc3cc4c(c-2c31)OCO4`, which Potency is on record?
The Potency was inconclusive [inhibitor, partial curve].

With `Cn1c(O)c(C=NC2CCCCCC2)c(=O)[nH]c1=S` as the compound, how does the Potency read?
The Potency was inconclusive [inhibitor, single point].

With `Cc1ccccc1C1=NCC(=O)N(CC(=O)NCc2ccco2)c2sc3c(c21)CCCC3` as the compound, how does the Potency read?
The Potency was active: 39.8 µM.

Which Potency does the source give for `CCCCN1CC(O)=C(c2nc3ccccc3s2)C1=N` here?
The Potency was inconclusive [inhibitor, single point].

`O=C(Oc1ccccc1)N1CCC2(CCCN(Cc3nccs3)C2)CC1` was tested. Which Potency did it give?
Its Potency is inconclusive [inhibitor, single point].

How did the Potency turn out when `O=c1[nH]c(=O)n(Cc2ccco2)c(O)c1C=NC1CC1` was run?
The Potency was active: 14.1 µM.

Which Potency does the source give for `Cc1ccccc1N1C(=O)NC(=O)/C(=C/c2ccc(N3CCOCC3)o2)C1=O` here?
The Potency was inconclusive [inhibitor, single point].

Which Potency does the source give for `C=CC(=O)NCNC(=O)C=C` here?
Its Potency is inconclusive [inhibitor, single point].

`O=CC1=C(N2CCOCC2)/C(=C\c2ccccc2)CC1` was tested. Which Potency did it give?
Its Potency is active: 3.55 µM.

How did the “activity, negative = inhibition” value turn out when `CC(C)CCNC(=O)c1cc(C(=O)c2cc(Br)ccc2O)cn(CCC(C)C)c1=O` was run?
Its value is inactive: -4.25%.

For `CC(Cc1ccccc1)NC(=O)Cc1ccc(N(C)C)cc1` (stereo unspecified), which Potency is on record?
The Potency was inconclusive [inhibitor, single point].

`O=C1C=C2C=CC3C[C@@]2(O1)C1CCCCN31` (stereo partly specified) was tested. Which “activity, negative = inhibition” value did it give?
The value was inactive: -9.66%.

With `CN(C)CCc1ccc(O)cc1` as the compound, how does the “activity, negative = inhibition” value read?
Its value is inactive: 5.5%.

For `CC1OC(NCCc2ccccc2)C(O)C(O)C1O` (stereo unspecified), which Potency is on record?
The Potency was inconclusive [inhibitor, single point].

For `Cn1cccc1/C=C1\C(=O)NC(=O)N(Cc2ccco2)C1=O`, which Potency is on record?
The Potency was inconclusive [inhibitor, partial curve].

`CCN(CC)C(=O)N[C@H]1C=C2c3cccc4[nH]cc(c34)C[C@@H]2N(C)C1` was tested. Which Potency did it give?
Its Potency is inconclusive [inhibitor, partial curve].
